Data reported in PubChem BioAssay AID488969 (Vanderbilt High Throughput Screening Facility, 2010).
In all, about 110,000 compounds were measured (“z-score”: median about -0.1, highest 2% from about 2 on). The list shows a part of the results. Activity calls are given as the source filed them.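 The calls were made as follows: active = z-score in the third read window above 3 or below -3; inactive = the rest.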

Each compound was assayed against Metabotropic glutamate receptor 8 (Rattus norvegicus) (UniProt P70579) (assay: mGluR8 Gi/Go-coupled signaling modulation – cell-based, rat, thallium flux, HTS, primary screen (AID 488969)). Details: HEK293 rat mGluR8, GIRK (G protein-gated inwardly rectifying potassium channel) thallium flux, FluoZin2; at 10 µM; stronger effect = higher value; submaximal glutamate (EC20) added with thallium.
Sequence of UniProt P70579 (P70579 whole entry, looked up): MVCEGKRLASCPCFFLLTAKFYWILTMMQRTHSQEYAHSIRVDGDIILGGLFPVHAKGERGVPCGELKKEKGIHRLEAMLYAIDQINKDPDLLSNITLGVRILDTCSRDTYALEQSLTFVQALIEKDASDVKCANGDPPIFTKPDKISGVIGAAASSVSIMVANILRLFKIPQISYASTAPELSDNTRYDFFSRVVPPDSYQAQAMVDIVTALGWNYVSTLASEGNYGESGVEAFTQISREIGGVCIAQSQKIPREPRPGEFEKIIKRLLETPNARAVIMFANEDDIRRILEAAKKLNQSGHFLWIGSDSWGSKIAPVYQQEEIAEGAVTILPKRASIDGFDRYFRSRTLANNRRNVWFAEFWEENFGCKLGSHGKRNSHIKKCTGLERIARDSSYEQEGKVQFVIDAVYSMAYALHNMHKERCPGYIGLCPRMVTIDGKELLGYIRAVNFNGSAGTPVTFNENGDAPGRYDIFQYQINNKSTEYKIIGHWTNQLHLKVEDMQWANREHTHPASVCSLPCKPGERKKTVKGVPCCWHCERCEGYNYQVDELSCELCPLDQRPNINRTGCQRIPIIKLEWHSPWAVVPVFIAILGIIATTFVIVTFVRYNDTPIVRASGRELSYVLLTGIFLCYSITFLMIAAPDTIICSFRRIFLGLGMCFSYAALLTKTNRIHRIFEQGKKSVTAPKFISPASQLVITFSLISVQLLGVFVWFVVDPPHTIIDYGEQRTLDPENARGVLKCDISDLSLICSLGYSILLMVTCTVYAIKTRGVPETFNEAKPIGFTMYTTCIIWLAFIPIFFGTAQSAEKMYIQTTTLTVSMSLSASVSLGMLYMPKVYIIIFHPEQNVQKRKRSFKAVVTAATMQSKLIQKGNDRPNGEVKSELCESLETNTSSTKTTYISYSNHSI

Row | SMILES | z-score
1 | Cc1ccc(S(=O)(=O)Oc2ccc(C3C4=C(CCCC4=O)N(CCC(=O)O)C4=C3C(=O)CCC4)cc2Cl)cc1 | -0.196
2 | CC(C)(C)c1nn2cnnc2n(/N=C/c2cccc3ccccc23)c1=O | -0.305
3 | Cc1nn(C)c(Cl)c1NC(=O)OCc1ccc(Cl)cc1Cl | -0.256
4 | Cc1c(/C=N/NC(=O)C(C)(C)Oc2ccc(Cl)cc2)cnn1C | -0.204
5 | CS(=O)(=O)N1CCc2cc(S(=O)(=O)Nc3ccc4c(c3)OCCO4)ccc21 | 0.322
6 | CC(CCc1ccco1)NC(=O)CSc1cc(=O)n(C)c2ccccc12 (stereo unspecified) | -0.0108
7 | COc1cc(S(=O)(=O)NC2CCCC2)ccc1F | -0.484
8 | CC(C)c1nc(SCC(=O)Nc2cccc(S(N)(=O)=O)c2)n[nH]1 | -0.115
9 | CC(C)NC(=O)CCCOc1ccc(Cl)cc1Cl | -0.491
10 | Cn1cnc2c1c(=O)n(Cc1c(Cl)cccc1Cl)c(=O)n2C | -0.318
11 | COC(=O)CCCCCCCCC(=O)Nc1nc2ccccc2s1 | -0.16
12 | O=C(CSc1nnc(-c2cccs2)n1-c1ccccc1)NCC1CCCO1 (stereo unspecified) | -0.616
13 | CCOc1ccc(-c2nnc(-c3cccnc3)o2)cc1OCC | 0.0661
14 | CCC(=O)OCc1c(C(F)(F)F)nn(C)c1Sc1ccc(F)cc1 | 0.0175
15 | O=C(CSC1=NCCS1)Nc1nc(-c2ccccc2)cs1 | -0.364
16 | Cc1cccc(C)c1NC(=S)N1CCC(N(C)CC2CCCO2)CC1 (stereo unspecified) | 0.0109
17 | CC1(C)CC(=O)C2=C(C1)OC(N)=C(C#N)C2c1cc2c(cc1[N+](=O)[O-])OCO2 (stereo unspecified) | -1.6
18 | O=C(NCc1ccccc1)N1CCn2c(nc3ccccc32)C1 | -0.567
19 | CC(C)(C)CC(=O)NCCCCCCNC(=O)CC(C)(C)C | -0.91
20 | Cc1ccc(C)c(CSc2nnc(-c3ccccn3)n2N)c1 | -0.204
21 | NC(=O)CNC(=O)C1CCCc2c1[nH]c1ccc(Cl)cc21 (stereo unspecified) | 0.332
22 | CCSc1nnc(NC(=O)CSc2nnc(Cc3cccn3C)n2CCc2ccccc2)s1 | 1.24
23 | CCSc1nnc(NC(=O)c2ccc3ccccc3n2)s1 | active: 11.8

Row | SMILES | z-score
24 | CN(C(=S)Nc1ccc(SC(F)F)cc1)c1ccc(O)cc1 | 0.142
25 | Cc1noc(C)c1COC(=O)c1cc(C)n(-c2ccccc2)c1C | 1.52
26 | CC1Cc2ccccc2N1C(=O)CN1C(=O)CN(C)C(=O)c2ccccc21 (stereo unspecified) | -0.498
27 | O=C(CN1C(=O)c2ccccc2S1(=O)=O)N1CCN(c2ccc(F)cc2)CC1 | -0.085
28 | CC1(C)CC(=O)C2=C(C1)NC(=O)CC2C(=O)NCc1ccc(F)cc1 (stereo unspecified) | -0.155
29 | COc1ccc(CCNC(=O)CCC(=O)N2CCN(S(=O)(=O)c3ccc(Cl)cc3)CC2)cc1OC | -0.0943
30 | CC(C)C(=O)Nc1nnc(CCc2nnc(NC(=O)C(C)C)s2)s1 | 0.549
31 | Cc1cc(-c2ccccc2)n(-c2cc(N/N=C/c3ccccc3O)ncn2)n1 | -0.217
32 | Cc1ccc(C(C)NC(=O)c2c(C)noc2C)cc1C (stereo unspecified) | 0.297
33 | Cc1c(NC(=O)Oc2ccccc2)sc(=S)n1C | -2.17
34 | COc1ccc(C(C#N)Nc2ccc(C)cc2)cc1 (stereo unspecified) | -0.276
35 | CCn1c(=O)n(CC)c2cc(S(N)(=O)=O)c(C)cc21 | 0.381
36 | CC(=O)c1cnn(-c2cc(Oc3cccc(C)c3)ncn2)c1C | 2.24
37 | Cc1ccc(C(C(=O)NC2CCCCC2)N2CCOCC2)cc1 (stereo unspecified) | -0.899
38 | Oc1c(/C=N/c2ncn[nH]2)ccc2ccccc12 | 0.0888
39 | O=C(Nc1nc(NC(=O)c2ccco2)n(-c2ccccc2)n1)c1ccccc1 | 0.158
40 | Cc1cc(C)n(-c2nc3sc4c(c3c(=O)[nH]2)CCCC4)n1 | -0.209
41 | Cn1cnnc1Sc1cc(N2CCN(S(=O)(=O)c3ccc4ccccc4c3)CC2)ccc1[N+](=O)[O-] | 0.0836
42 | Cc1cc2ncn(/N=C/c3ccc(-c4ccccc4)o3)c2cc1C | 0.235
43 | c1cnc2ccc(C(c3nnnn3C3CCCCC3)N3CCCCC3)cc2c1 (stereo unspecified) | -0.129
44 | CC(C)n1c(/C=C/c2ccccc2)nc2ccccc21 | 0.0811
45 | O=C(O)c1ccc(N/N=C/c2ccc(OC(=O)c3ccccc3Cl)cc2)cc1 | -0.31
46 | Cc1noc(C)c1S(=O)(=O)NC1CCN(Cc2ccccc2)CC1 | 0.32

Row | SMILES | z-score
47 | C=CCOc1ccc(C2C(C(=O)c3cccs3)=C(O)C(=O)N2c2nnc(C)s2)cc1 (stereo unspecified) | -0.198
48 | CCCn1nc2cc(C(=O)N(CC)c3ccc(OC)cc3)ccc2c1OCC | -0.2
49 | O=C(NC1CCCC1)C1CC1c1ccccc1 (stereo unspecified) | 0.0881
50 | Oc1ccc(-c2nnc(-c3ccccc3)c(-c3ccccc3)n2)cc1 | 0.731
51 | COc1ccc(Cl)cc1NC(=S)NCCc1c[nH]c2ccccc12 | 0.142
52 | CCOC(=O)N1CCC(NC(=O)Cn2cccc2C(=O)c2ccccc2C)CC1 | -0.00445
53 | N=c1sccn1CC(=O)Nc1cccc(Oc2ccccc2)c1 | -0.953
54 | COc1ccc(Cl)cc1NC(=O)c1oc(C)nc1C | 0.237
55 | COc1cccc(/C=N/n2cnnc2)c1OCc1ccccc1 | -0.0136
56 | CC1=NN(/C(=N\c2nnc(C)s2)Nc2ccccc2)[C@H](c2cccc3ccccc23)S1 | -1.78
57 | CC(=O)c1ccc(NS(=O)(=O)c2ccc(C)cc2)cc1 | -0.262
58 | Cc1ccccc1OCC(O)Cn1c(NCCN(C)C)nc2c1c(=O)n(C)c(=O)n2C (stereo unspecified) | -0.102
59 | CCC(C)NS(=O)(=O)c1ccc(NS(=O)(=O)c2ccc(F)cc2)cc1 (stereo unspecified) | -0.209
60 | CS(=O)(=O)N(CC(=O)Nc1ccccc1Sc1ccccc1)c1ccc(F)cc1 | 0.0742
61 | COc1ccc(/C=C2\SC(=S)N(CCCC(=O)Nc3ccccn3)C2=O)cc1OC | -0.307
62 | Fc1ccc(-c2nnc(CN3CCN(c4ncc(C(F)(F)F)cc4Cl)CC3)o2)cc1 | -0.423
63 | CCCOc1ccc(/C=N/O)cc1 | 0.0193
64 | CC(=O)c1ccc(NC(=O)c2ccc(S(=O)(=O)N3CCCC3)cc2)cc1 | 0.269
65 | CCCC(=O)Nc1ccccc1NC(=O)c1cc(OC)c(OC)c(OC)c1 | -0.11
66 | COc1cc(OC)c(NC(=O)c2ccoc2C)cc1Cl | -0.687
67 | CC(C)c1nnc(SCC(=O)NCc2ccc3c(c2)OCO3)n1C | -0.49
68 | C[C@H](NC(=O)c1ccco1)C(=O)Nc1ccc(S(=O)(=O)N2CCCC2)cc1 | -0.00895
69 | CCC(=O)N1c2ccc(S(=O)(=O)CCC(=O)NC3CCCC3)cc2CC1C (stereo unspecified) | -0.055

Row | SMILES | z-score
70 | CNC(=O)c1ccc(CNC(=O)OCC(F)(F)F)cc1 | 0.123
71 | CC(=O)N1CCN(C(=S)NCCc2ccccc2)CC1 | -0.0723
72 | Cc1cccc(N2CCN(CC(=O)Nc3ccc(-n4cnnn4)cc3)CC2)c1C | 0.12
73 | O=c1c2cc3c(cc2[nH]c(=S)n1Cc1ccco1)OCO3 | 2.77
74 | Cc1ccc(C(CCN(Cc2ccccc2)C(=O)c2ccco2)c2ccco2)cc1 (stereo unspecified) | -0.0064
75 | N#CC1=C(N)OC2=C(CCc3ccccc32)C1c1ccccc1 (stereo unspecified) | -0.351
76 | CN(C)N=Nc1ccc(S(=O)(=O)N2CCSC2C(=O)O)cc1 (stereo unspecified) | 1.62
77 | CCCCOc1ccc(-c2cnc3ccccc3n2)cc1 | -0.107
78 | O=C(COC(=O)c1c(Cl)ccc(Cl)c1Cl)NC(=O)NCc1ccccc1 | -0.813
79 | COc1ccc(S(=O)(=O)N2CN(CCc3ccc(OC)c(OC)c3)c3nc4ccccc4nc32)cc1 | -0.186
80 | O=C(Nc1ccc2nc(-c3cccs3)c(-c3cccs3)nc2c1)N1CCOCC1 | -0.942
81 | CC1(C)CC2(CC(C)(C)NC(=O)N2)NC(=O)N1 | -1.37
82 | O=C(Oc1cccc2c(OC(=O)N3CCCC3)cccc12)N1CCCC1 | -0.117
83 | N#Cc1nc(COc2ccc(Cl)cc2Cl)oc1N1CCN(c2ccccc2)CC1 | -1.08
84 | COc1ccc([N+](=O)[O-])cc1NC(=O)Cc1ccccc1Cl | -0.0573
85 | CCCCNC(=O)/C=C/c1ccc(OC)c(Br)c1 | 0.109
86 | C=CCN(CC=C)C(=O)Cn1cnc([N+](=O)[O-])n1 | 0.102
87 | CCCCn1c(CN2CCN(c3cccc(Cl)c3)CC2)nc2c1c(=O)n(C)c(=O)n2C | -0.183
88 | Cc1cccc(S(=O)(=O)Nc2nc3ccccc3nc2NCc2ccco2)c1 | 0.8
89 | CCCc1cc(=O)[nH]c(SCC(=O)Nc2c(C)cccc2C)n1 | 0.613
90 | CC1CCCN(C(=O)Cc2ccc(F)cc2)C1 (stereo unspecified) | 0.0202
91 | COc1ccccc1Cc1nc(-c2ccc(Br)o2)no1 | -0.39
92 | O=C1C=C(NCc2ccc(Cl)c(Cl)c2)C2(CCCCC2)O1 | -0.16

Row | SMILES | z-score
93 | CCCCc1ccc(NC(=O)COc2ccc(C(=O)Nc3ccccc3C)cc2)cc1 | 0.039
94 | CC(=O)c1ccc(OCC(O)Cn2nnc3ccccc32)cc1 (stereo unspecified) | -0.632
95 | CCN1C(=O)/C(=C/N(C)C)c2ccccc21 | 1.1
96 | O=C(Nc1ccc(N2CCOCC2)cc1)c1ccc(Cl)nc1 | -0.278
97 | CSc1ncccc1C(=O)OCC(=O)c1cc2ccccc2o1 | -0.011
98 | Cc1nc2ccccc2n1-c1ccccc1 | -0.264
99 | COc1ccc(Cc2nnc3n2N=C(c2cc4ccccc4o2)CS3)cc1OC | -1.18
100 | CCC(C)C(NC(=O)c1ccccc1NC(=O)c1ccc(OC)cc1)C(=O)NCc1ccco1 (stereo unspecified) | 0.162
101 | CCOc1ccc(NC(=O)c2ccco2)cc1 | -0.0362
102 | CCOC(=O)c1cc(NC(=O)c2cc(C)on2)cc(C(=O)OCC)c1 | -0.369
103 | COC(=O)c1ccc(C(=O)OC)c(NC(=O)CN2CCN(c3ccc(OC)cc3)CC2)c1 | 0.304
104 | O=C(COc1ccc2ccccc2c1Br)N1CCOCC1 | 0.168
105 | CCn1c(SCC(=O)Nc2oc(-c3ccccc3)c(-c3ccccc3)c2C#N)nnc1-c1cc(OC)cc(OC)c1 | -2.12
106 | CCC1C(=O)N(c2nc(C)cc(C)n2)N=C1C (stereo unspecified) | -0.251
107 | Nn1c(SCC(=O)Nc2ccc3c(c2)OCCO3)nnc1C(F)(F)F | 0.599
108 | COCCN(CCOC)c1cc(C)c(C#N)c2nc3ccccc3n12 | -0.734
109 | O=C(COC(=O)CNS(=O)(=O)c1ccc2ccccc2c1)Nc1ccc2c(c1)OCO2 | -0.165
110 | CC1(C)Cc2c(C#N)c(N3CCN(C(=O)c4ccccc4)CC3)nc(Cc3ccccc3)c2CO1 | -0.48
111 | Cc1cccc(OC(=O)NCCOC(=O)N(O)c2ccc(Cl)cc2)c1 | -0.609
